Some of the results follow.
System: PfSIP2 AP2 domain 1 (GST-tagged)
Assay: gcPBM binding intensity (ln(normalized median fluorescence intensity)); higher = stronger DNA binding
Outline: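 Alexa488 anti-GST antibody, scanned at 488 nm, detected GST-tagged P. falciparum DNA-binding domains that had been expressed in E. coli and incubated for 1 h on an Agilent 4 × 180k array. The array carried primer-extended double-stranded 36-bp intergenic genomic probes and negative controls. Binding intensity is the highest Masliner-normalised natural-log median intensity across replicate spots of either orientation of each probe.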

Row | Sequence | gcPBM binding intensity (ln)
1 | TATATATAAAAAAAAAGTACATATAATATAATATTT [XGTACX_site7902] | 6.88
2 | CCTTTTTATTTTTGTAGTACTACATATACATATCTG [XGTACX_site7791] | 7.59
3 | AAAAAAAAAAAAAATAAATAAATAAATAAATATATA [GTGCAC_negctrl_site382] | 7.04
4 | ATATTAAAAAAATATAAACACACAAAAAAAAAATAT [CACACA_site8283] | 7.15
5 | TATTCAAAGAAAAACTGTACGTGTAGCAAACGTCAT [XGTACX_site7713] | 7.03
6 | TTTTTATAACAGCTTAGTACATATAAGAATTCTTGC [XGTACX_site5890] | 6.93
7 | GACCCCATATACATATGTACATACATAATATATATA [XGTACX_site1817] | 7.56
8 | AATGTACGCATATACACACACATAAATAGATACGTA [CACACA_site3406] | 7.15
9 | AACGAAAACACTACGTGTACCAAACGTCCTACCAAC [XGTACX_site257] | 6.78
10 | AATAGTTAAATACATACATGCATTCATATAATATAT [TGCATGCA_site433] | 6.98
11 | TAATTAAGAATATATAGTACATAGTTGAAAAACTTT [XGTACX_site6359] | 6.82
12 | AAGATAAAAATATGCACACATATATATATATATATA [CACACA_site404] | 9.57
13 | TTCAAAAAATATATCTGTACAAATTATGTAGATGAA [XGTACX_site5522] | 6.95
14 | TTTTTTTTTTTTTTTTTTTTACGATATATTTTAAAA [XGTACX_negctrl_site401] | 6.99
15 | TAGATCATAACAATTGCACACATTTGCATTTATATT [CACACA_site1562] | 7.45
16 | TTTTTACTTATTTATTATGTACAATTTCTTCTTTCT [CACACA_negctrl_site264] | 6.73
17 | AAGAAAATGTAGAATTAGAAATAAATGAAGAAATGA [TGCATGCA_negctrl_site548] | 7.15
18 | TATATGTTTAATTTCACACACAAATATACATTTTAA [CACACA_site4171] | 6.99
19 | AGTAGATTTTTATTAGTGCATTTTATACTACAAAAA | 8.89
20 | CATTAGCATTTTATTACACACAATAAATTAGAAGTA [CACACA_site7837] | 7
21 | TTTTAAAACAATGAGATTCCTTTCTTTTTTTCTTTT [CACACA_negctrl_site1320] | 6.31
22 | ATATTTATTTATATCATACACACTAATATGTATATT [CACACA_site7576] | 7.09

Row | Sequence | gcPBM binding intensity (ln)
23 | TATCCCTTAGAATACACACCCATATGAGGGTGAACT [CACACA_site5610] | 6.73
24 | CTTAATGATAAATACATACACACAAAAAATAATATA [CACACA_site2577] | 7.09
25 | ATATTCTCTTAAATATGTACGTATGTATATATATAT [XGTACX_site5885] | 8.51
26 | CGCAAAACAATGATACGTACATATATATATATATAT [XGTACX_site5883] | 9.45
27 | ATTCTTAAATGTGGTTGTACATATTATCACCTTTAA [XGTACX_site8188] | 6.9
28 | TTTTTAATTTTATATACACACATAAAAGATATGAAG [CACACA_site7470] | 6.96
29 | TAATTCTTTATTTTTCGTACGTAAAACAAAAAATAT [XGTACX_site862] | 7.16
30 | AATGTAAAGAACAAAACATGCAACTAGTTTACTTTT [TGCATGCA_site841] | 6.69
31 | TAGAAAAAAGATAGCACACACGGCCCAATATATATA [CACACA_site5354] | 7.42
32 | TAAGTATATAAAATTACACACTATTTTTTTTCAAGT [CACACA_site1792] | 6.78
33 | TCGAATATCTTATAGGTGCATCATAAATACATATGT | 10.8
34 | TTAATTTCGAATTATTGTACATTAATATATCTACAG [XGTACX_site3314] | 6.89
35 | AAAACAAATAGACACGCACACAAAAAAAAAAAAAAA [CACACA_site801] | 7.11
36 | ATATATATATATATATGTACATAAATATAAATTTAA [XGTACX_site8715] | 9.47
37 | GAATAAAAAAAAAAAAAAATTTATTTTATAATAAAA [CACACA_negctrl_site1514] | 6.65
38 | ATGCAATAATAATGGAGTACATATTAATATTGATCA [XGTACX_site2312] | 6.95
39 | AAAAAATATATTAAGGCACACACATACATATATATA [CACACA_site9239] | 7.39
40 | CCTTTTGGATGAAAGTGTACAGGTGAGAAAAATTCC [XGTACX_site3358] | 6.76
41 | TACATCGGTATATAAACACACAACAAAAATGCTTAC [CACACA_site5983] | 7.05
42 | AAAATAATTAAAAAAAGTACTCGTAATATAAATATA [XGTACX_site4967] | 6.98
43 | ACAAATAAATAAAAATGTACAAATGAATACATCTTA [XGTACX_site3780] | 6.95
44 | TTAAAAGATATTACATGTACATATTCAATATATGTA [XGTACX_site5895] | 6.74

From the supplement of paper PMC11417369
